Whole data set: some 33,000 sequences, median “E-score (-0.5 to 0.5)” near -0.012, cut for the highest 2% near 0.29. The list shows a part of the results.

Here are results for 109 sequences from the supplement of paper PMC3334620.

The target in the experiment is T1, Ybr033w (UniProt P38073).
T1 sequence: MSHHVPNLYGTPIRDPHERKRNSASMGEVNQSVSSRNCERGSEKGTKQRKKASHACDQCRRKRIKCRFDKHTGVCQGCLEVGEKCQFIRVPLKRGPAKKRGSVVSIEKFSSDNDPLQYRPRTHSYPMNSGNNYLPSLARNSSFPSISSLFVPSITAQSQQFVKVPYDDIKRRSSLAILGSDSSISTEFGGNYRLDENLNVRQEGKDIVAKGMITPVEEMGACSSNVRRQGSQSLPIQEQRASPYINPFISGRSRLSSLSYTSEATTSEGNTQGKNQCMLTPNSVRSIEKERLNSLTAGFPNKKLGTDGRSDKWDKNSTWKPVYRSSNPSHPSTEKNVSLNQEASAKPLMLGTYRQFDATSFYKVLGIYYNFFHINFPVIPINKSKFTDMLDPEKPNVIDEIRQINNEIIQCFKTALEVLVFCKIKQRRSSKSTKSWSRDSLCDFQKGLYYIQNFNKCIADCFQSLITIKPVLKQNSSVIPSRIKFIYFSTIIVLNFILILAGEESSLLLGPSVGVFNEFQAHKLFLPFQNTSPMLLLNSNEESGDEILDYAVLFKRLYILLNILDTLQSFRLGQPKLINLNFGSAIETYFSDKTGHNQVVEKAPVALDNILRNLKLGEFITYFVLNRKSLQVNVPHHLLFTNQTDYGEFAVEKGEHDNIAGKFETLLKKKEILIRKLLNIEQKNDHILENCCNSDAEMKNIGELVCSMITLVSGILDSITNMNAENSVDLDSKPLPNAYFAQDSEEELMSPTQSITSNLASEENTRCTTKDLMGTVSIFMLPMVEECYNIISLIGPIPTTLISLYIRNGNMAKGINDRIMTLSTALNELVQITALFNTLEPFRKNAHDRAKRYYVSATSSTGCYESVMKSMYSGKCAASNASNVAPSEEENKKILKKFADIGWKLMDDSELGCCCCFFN
The experiment in a line: PBM E-score (8-mer binding enrichment) (E-score (-0.5 to 0.5)); higher = stronger / more preferred TF binding; most listed sequences are background and not binding sites. Conditions: protein concentration: 200 nM; construct: GST-full length. The method in brief:
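For each ungapped eight-base word taken together with its reverse complement, the Universal PBM Analysis Suite assigned an E-score. Binding data came from GST-tagged yeast transcription factors, applied at about 100-200 nM, on universal all-10-mer Agilent arrays made double-stranded by primer extension. Fluorescent anti-GST marked bound protein, and scans were normalised with masliner.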
Regarding GAAAAGGA, the “PBM E-score” value is -0.111.
For ATAGCCAG the value was -0.115; for CGCTGTGC, 0.00463.
As for CGACAAGC, the “PBM E-score” value is -0.215.
With CAACATCC, the “PBM E-score” value is -0.07.
For CCGGGAGC the value was -0.219; for AGGCTGAG, -0.179; for CCAAAGTA, 0.118.
For GAAGTTAA the value was -0.0175.
With ACATCAAT, the “PBM E-score” value is 0.0787.
For CAAACCAC the value was 0.00466.
For AAATACAT the value was 0.203.
For ACAACTGC the value was 0.0557; for AGGGACCT, -0.208; for ATGATCTG, 0.201.
For GGATCTCA, the “PBM E-score” value is -0.0542.
Take AATGCGGC: the “PBM E-score” value was -0.0481.
For CGTGATAC the value was 0.00515.
For GTATGGGA the value was -0.125.
For ATTTGACG, the “PBM E-score” value was found to be 0.175.
For CCTCCCTC the value was -0.111.
Turning to GCAACTCC, the “PBM E-score” value is -0.162.
For ATCAGATG the value was 0.035; for GAACCCAA, -0.042; for GGGGGAAC, -0.279.
In the case of CATATCGC, the “PBM E-score” value amounted to 0.113.
Take ACCTGCAC: the “PBM E-score” value is -0.104.
For GGTTACAC the value was -0.133; for GAAATTGC, 0.0471; for CCCGAGAC, -0.239.
As to AAACCACG, the “PBM E-score” value is -0.0411.
For ACAGAGAC the value was 0.0142; for AGGACTGA, -0.167.
For AGTCATTA the value was 0.074; for CGCTAAGC, -0.0229; for ACACTCGC, 0.0904.
For GTAGGTCA the value was -0.233; for CGGTGGTA, -0.114.
Consider GAGGCAGC, for which the “PBM E-score” value was -0.208.
On to GCCAATCA, for which the “PBM E-score” value was -0.0448.
For GACATCCA the value was -0.0152; for GAGTTGGA, 0.18; for ACCCAGCT, -0.143.
With ACGCCGGG, the “PBM E-score” value was -0.3.
In the case of AGATCATG, the “PBM E-score” value was 0.0396.
For AGCCAGAG the value was -0.196.
For AGGTCACC the value was -0.2.
For the sequence GACGTAGA, the “PBM E-score” value was -0.296.
For CAATGTAG the value was 0.043.
As for AATAATAC, the “PBM E-score” value was determined as 0.245.
For AAGTGCAC the value was 0.16.
For CCTGTCTC the value was -0.156.
Consider GCGACTTA, for which the “PBM E-score” value was -0.119.
For ACACGCTA the value was -0.00964.
For CGATAAAG the value was 0.137; for CTCCGTAC, -0.0575; for AGTCATGA, 0.0548.
For GTGAGTAA the value was 0.0827.
As to ACCGGGGG, the “PBM E-score” value is -0.333.
For GTCCTAAA the value was -0.0119; for ACGTCGCC, -0.246; for GTATAATA, 0.207.
Regarding ATTGATTA, the “PBM E-score” value was determined as 0.286.
For ATTAAATC the value was 0.213; for GTGTACAC, 0.0902.
For TACAGGCA the value was -0.0896; for AGGGCATA, 0.121.
For CGTGTTAC the value was -0.114; for CTATAAAC, 0.219.
With CTACGCCC, the “PBM E-score” value is -0.129.
Take AACGGGAT: the “PBM E-score” value is -0.00532.
Consider TAGTTCGA, for which the “PBM E-score” value came to 0.0348.
On to ACCCTTTG, for which the “PBM E-score” value was -0.129.
For CCACCAGG the value was -0.225; for AGTAGGGC, 0.0017; for CGTTTTAC, -0.0132.
For GCGCGAAC, the “PBM E-score” value is -0.0266.
Regarding CAAAGTCG, the “PBM E-score” value is -0.0986.
For AGTGGTAG the value was 0.0179; for ATTGTGCC, -0.0949.
For ATGGTAGG the value was -0.14.
For TCCAACGA the value was -0.0709; for ACCGAAAC, 0.0158; for CTAGATTA, 0.184.
Take CAGTACGA: the “PBM E-score” value turned out to be 0.0942.
For CTTAGGGC the value was -0.135; for CACCTACG, -0.206.
For AGCTGCAT the value was -0.0402; for CGCGGGTA, -0.00903.
For AACGACTG the value was -0.113; for TTCCAAAA, 0.168.
Take ATACTAGA: the “PBM E-score” value amounted to 0.233.
For AGTAGGAT the value was 0.0548; for AAATTTCC, 0.258.
On to ATGAGTTA, for which the “PBM E-score” value was 0.0961.
Regarding CAGTGGCA, the “PBM E-score” value was -0.155.
Regarding CAGAATTA, the “PBM E-score” value was -0.00887.
For AGGGATGA the value was -0.0393; for GAGGAAGA, 0.124; for CAGCAAGG, -0.0777.
For ACAAATGT the value was 0.0955.
For GTTCCATA the value was 0.0434.
Consider CCGCGCTA, for which the “PBM E-score” value was 0.0648.
For CTAGATAA the value was 0.196.
As for AATTGCAT, the “PBM E-score” value turned out to be 0.179.
For ATCCTCTG the value was -0.0786; for ATGGCCCC, -0.322; for GCGATACA, 0.0586.
For the sequence CGAAGTAA, the “PBM E-score” value came to 0.168.
